{
  "source": "paper PMC4336329",
  "about": "(PLoS ONE, 2015)",
  "note": "In all, about 310,000 compounds went through this assay and about 14,000 (4.5%) showed an effect of 50% or more. The effect is printed as a negative number. This is one part of the list.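 Further: peak tail current of the secondary pulse compared with the same well before compound.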",
  "data": [
    {"target": "human ether-à-go-go-related gene (hERG) potassium channel (human, UniProt Q12809)", "sequence (Q12809 whole entry, looked up)": "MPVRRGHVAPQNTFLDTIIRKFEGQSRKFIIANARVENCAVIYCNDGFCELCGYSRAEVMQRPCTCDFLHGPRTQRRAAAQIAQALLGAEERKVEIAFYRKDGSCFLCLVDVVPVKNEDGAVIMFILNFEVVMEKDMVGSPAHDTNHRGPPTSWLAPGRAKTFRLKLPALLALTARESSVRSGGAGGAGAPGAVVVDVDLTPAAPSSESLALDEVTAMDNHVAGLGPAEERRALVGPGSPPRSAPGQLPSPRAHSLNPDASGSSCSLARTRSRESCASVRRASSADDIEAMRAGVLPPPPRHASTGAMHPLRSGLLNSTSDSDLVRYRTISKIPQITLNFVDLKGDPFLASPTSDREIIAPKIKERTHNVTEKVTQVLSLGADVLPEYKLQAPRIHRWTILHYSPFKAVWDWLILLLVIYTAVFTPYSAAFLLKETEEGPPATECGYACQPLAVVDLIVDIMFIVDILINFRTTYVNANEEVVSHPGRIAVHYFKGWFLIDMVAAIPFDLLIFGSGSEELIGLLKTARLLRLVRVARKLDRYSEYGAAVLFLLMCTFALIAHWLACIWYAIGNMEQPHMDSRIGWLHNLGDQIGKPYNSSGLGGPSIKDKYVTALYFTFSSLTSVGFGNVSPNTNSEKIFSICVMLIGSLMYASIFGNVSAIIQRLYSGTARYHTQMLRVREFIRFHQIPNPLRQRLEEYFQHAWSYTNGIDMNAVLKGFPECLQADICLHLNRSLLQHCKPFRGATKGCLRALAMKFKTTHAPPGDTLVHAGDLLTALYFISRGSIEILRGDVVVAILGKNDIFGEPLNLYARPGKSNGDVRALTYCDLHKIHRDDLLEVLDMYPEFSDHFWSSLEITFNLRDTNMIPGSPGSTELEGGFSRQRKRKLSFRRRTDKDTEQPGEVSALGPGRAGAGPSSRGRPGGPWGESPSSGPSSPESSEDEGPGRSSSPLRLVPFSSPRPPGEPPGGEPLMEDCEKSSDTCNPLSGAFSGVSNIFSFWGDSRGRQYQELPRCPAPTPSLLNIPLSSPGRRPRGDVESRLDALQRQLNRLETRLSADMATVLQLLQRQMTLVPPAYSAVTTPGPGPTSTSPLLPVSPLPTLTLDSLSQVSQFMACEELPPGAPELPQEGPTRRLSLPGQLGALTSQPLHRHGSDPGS", "assay": "primary screen, population patch clamp on CHO cells stably expressing hERG", "units": {"hERG current change (%, negative = inhibition) at 10uM": "%"}, "values": [
      {"smiles": "OCCNc1ccc(Cl)cc1", "hERG current change (%, negative = inhibition) at 10uM": 10.4},
      {"smiles": "NC(=O)C[C@@H]1NC(=O)[C@H](CCC(=O)O)NC(=O)c2cc([N+](=O)[O-])cc(I)c2OCC[C@@H](C(N)=O)NC1=O", "hERG current change (%, negative = inhibition) at 10uM": 13.1},
      {"smiles": "COc1ccc(NC(=O)CCn2nnc(-c3ccc(C)cc3)n2)cc1OC", "hERG current change (%, negative = inhibition) at 10uM": 9.3},
      {"smiles": "Cc1ccc(C)c(NC(=O)CSc2n[nH]c(-c3ccccn3)n2)c1", "hERG current change (%, negative = inhibition) at 10uM": 10.8},
      {"smiles": "Cc1cccc(C(=O)Nc2nnc(S(=O)(=O)N3CCC(C)CC3)s2)c1", "hERG current change (%, negative = inhibition) at 10uM": 13.5},
      {"smiles": "CCN(CC(=O)NCc1cccs1)S(=O)(=O)c1cc(NC(C)=O)ccc1OC", "hERG current change (%, negative = inhibition) at 10uM": -11.8},
      {"smiles": "COc1ccc(C2CC(=O)c3cnn(-c4nc(C)cc(C)n4)c3C2)cc1", "note": "(stereo not shown)", "hERG current change (%, negative = inhibition) at 10uM": -11.6},
      {"smiles": "Cc1ccc(C2/C(=C(/O)c3cnn(-c4ccccc4)c3C)C(=O)C(=O)N2CCN2CCOCC2)o1", "note": "(stereo not shown)", "hERG current change (%, negative = inhibition) at 10uM": 6.7},
      {"smiles": "CC1CCCCC1NC(=O)Cn1cc([N+](=O)[O-])ccc1=O", "note": "(stereo not shown)", "hERG current change (%, negative = inhibition) at 10uM": 7.67},
      {"smiles": "C/C(=N\\O)C(C)(C)Nc1cccc(F)c1", "hERG current change (%, negative = inhibition) at 10uM": 12.7},
      {"smiles": "CCOC(=O)N1CCN(CC(=O)Nc2c(C(=O)OC)[nH]c3cccc(Cl)c23)CC1", "hERG current change (%, negative = inhibition) at 10uM": 17},
      {"smiles": "CC(=O)c1cc(CN2CCN(C3CCCCC3)C(CCO)C2)cs1", "note": "(stereo not shown)", "hERG current change (%, negative = inhibition) at 10uM": -17.2},
      {"smiles": "S=C(NCc1ccccn1)Nc1ccc(Br)cc1Cl", "hERG current change (%, negative = inhibition) at 10uM": 26.2},
      {"smiles": "O=C(c1c(Cl)nc2sccn12)N1CCN(c2cccc(Cl)c2)CC1", "hERG current change (%, negative = inhibition) at 10uM": -37.9},
      {"smiles": "Oc1ccccc1-n1nc2ccc3nonc3c2n1", "hERG current change (%, negative = inhibition) at 10uM": 24.4},
      {"smiles": "CCNS(=O)(=O)c1ccc(CCC(=O)Nc2cc(Cl)ccc2Oc2ccccc2)cc1", "hERG current change (%, negative = inhibition) at 10uM": -14.9},
      {"smiles": "C=CCOc1cccc(C2C(C(=O)c3ccc(C)o3)=C(O)C(=O)N2c2nnc(C)s2)c1", "note": "(stereo not shown)", "hERG current change (%, negative = inhibition) at 10uM": -2.99},
      {"smiles": "C(=N\\Nc1nc(-c2ccccn2)nc2ccccc12)/c1ccccc1", "hERG current change (%, negative = inhibition) at 10uM": 12.3},
      {"smiles": "COC(=O)C1=C(C)OC(N)=C(C#N)C1c1ccc(OC)c(OC)c1OC", "note": "(stereo not shown)", "hERG current change (%, negative = inhibition) at 10uM": -8.57},
      {"smiles": "COc1ccc(-c2nc3n(c(=O)c2C#N)CCS3)cc1", "hERG current change (%, negative = inhibition) at 10uM": -8.79},
      {"smiles": "Cc1ccc(CNC(=O)CN(Cc2cccs2)C(=O)C2(C)CC(=O)N=C3C=CC=CN32)cc1", "note": "(stereo not shown)", "hERG current change (%, negative = inhibition) at 10uM": 16.3},
      {"smiles": "O=C1c2cccc3cccc(c23)C(=O)N1c1nncs1", "hERG current change (%, negative = inhibition) at 10uM": 0.491},
      {"smiles": "COCCn1c(=S)[nH]c2cc(C(=O)N3CC(C)CC(C)C3)ccc2c1=O", "note": "(stereo not shown)", "hERG current change (%, negative = inhibition) at 10uM": 20.2},
      {"smiles": "CC1(c2nnc(-c3ccccc3)o2)CC(c2ccc(Cl)cc2)=NO1", "note": "(stereo not shown)", "hERG current change (%, negative = inhibition) at 10uM": -2.27},
      {"smiles": "Cc1ccc(S(=O)(=O)Oc2ccc(/C=C(/NC(=O)c3ccccc3)C(=O)NCCC(=O)O)cc2)cc1", "hERG current change (%, negative = inhibition) at 10uM": 6.29},
      {"smiles": "Cc1ccc(O)c(CNn2cnnc2)c1", "hERG current change (%, negative = inhibition) at 10uM": -4.63},
      {"smiles": "O=c1oc2ccccc2cc1-c1cn(-c2ccccc2)c(=S)[nH]1", "hERG current change (%, negative = inhibition) at 10uM": 12.5},
      {"smiles": "Cc1cccc(C)c1NC(=O)C1(N(Cc2ccco2)C(=O)c2ccccn2)CCCC1", "hERG current change (%, negative = inhibition) at 10uM": 5.95},
      {"smiles": "CCOC(=O)Cc1csc(NC(=O)CN2CCN(CC)CC2)n1", "hERG current change (%, negative = inhibition) at 10uM": 15.8},
      {"smiles": "CN(CC(=O)Nc1ccccc1Cl)C(=O)c1ccccc1SCC(=O)N1CCCC1", "hERG current change (%, negative = inhibition) at 10uM": -10.5},
      {"smiles": "COc1cc(C(c2c(C(=O)O)[nH]c3ccccc23)c2c(C(=O)O)[nH]c3ccccc23)ccc1OCc1ccccc1", "hERG current change (%, negative = inhibition) at 10uM": 8.82},
      {"smiles": "CCN1/C(=C/C=C/C=C/c2sc3ccccc3[n+]2CC)Sc2ccccc21.[I-]", "hERG current change (%, negative = inhibition) at 10uM": -78.9},
      {"smiles": "O=C(O)C1CCN(C(=O)c2ccc(Cl)cc2)CC1", "hERG current change (%, negative = inhibition) at 10uM": 12.4},
      {"smiles": "CC(=O)N(C)c1ccc(NC(=O)C(Sc2ccccc2)c2ccccc2)cc1", "note": "(stereo not shown)", "hERG current change (%, negative = inhibition) at 10uM": -14.4},
      {"smiles": "COCc1ccc(C(=O)NC2CC(C)(C)Cc3c2cnn3-c2ccc(OC)cc2)o1", "note": "(stereo not shown)", "hERG current change (%, negative = inhibition) at 10uM": -29.3},
      {"smiles": "CC(=O)c1c(C(C)=O)c(C)n(-c2cccc3cccnc23)c1C", "hERG current change (%, negative = inhibition) at 10uM": 10.9},
      {"smiles": "Cc1c(C(=O)N2CCN(Cc3ccccc3)CC2)oc2c1C(=O)CCC2", "hERG current change (%, negative = inhibition) at 10uM": 0.625},
      {"smiles": "COC(=O)[C@@H](NCc1cccc(CN([C@H](C(=O)OC)C(C)C)S(C)(=O)=O)c1)C(C)C", "hERG current change (%, negative = inhibition) at 10uM": 1.31},
      {"smiles": "CCOC(=O)c1c(NC(=O)CSc2nnc3c(n2)[nH]c2ccc(F)cc23)sc(C(C)=O)c1C", "hERG current change (%, negative = inhibition) at 10uM": 9.12},
      {"smiles": "Cc1cc(=O)[nH]c(SCC(=O)N2CCCCCC2)n1", "hERG current change (%, negative = inhibition) at 10uM": 13.1},
      {"smiles": "Cc1cccc(CSCC(=O)NCc2ccc(S(N)(=O)=O)cc2)c1", "hERG current change (%, negative = inhibition) at 10uM": 21.4},
      {"smiles": "CC1(C)CC2CC(C)(CN2Cc2cccc([N+](=O)[O-])c2)C1", "note": "(stereo not shown)", "hERG current change (%, negative = inhibition) at 10uM": 16.7},
      {"smiles": "Cn1c2c(c(=O)n3ncnc13)CCCC2", "hERG current change (%, negative = inhibition) at 10uM": 13.1},
      {"smiles": "Cc1ccc(N(CC(=O)NCc2ccco2)C(=O)CNS(=O)(=O)c2ccc(F)cc2)c(C)c1", "hERG current change (%, negative = inhibition) at 10uM": -15},
      {"smiles": "COc1ccccc1OCc1cc(C(=O)N2CCN(C)C(c3ccccc3)C2)no1", "note": "(stereo not shown)", "hERG current change (%, negative = inhibition) at 10uM": -61.1},
      {"smiles": "COC(=O)CNC(=O)CCCCC(=O)NCC(=O)OC", "hERG current change (%, negative = inhibition) at 10uM": 19.7},
      {"smiles": "COc1ccc(Cc2nnc(Cl)c3ccccc23)cc1OC", "hERG current change (%, negative = inhibition) at 10uM": 14.9},
      {"smiles": "COc1cc(NS(=O)(=O)c2cc(C)ccc2OC)c(OC)cc1Cl", "hERG current change (%, negative = inhibition) at 10uM": 7.42},
      {"smiles": "COC(=O)C(C)N(C(=O)c1ccc(Cl)cc1)c1c(C)cccc1C", "note": "(stereo not shown)", "hERG current change (%, negative = inhibition) at 10uM": -15.2},
      {"smiles": "CCCC(=O)NCCCc1nc2ccccc2n1CCC", "hERG current change (%, negative = inhibition) at 10uM": -9.27},
      {"smiles": "O=C(NCCCN1CCCCC1)C1(S(=O)(=O)c2ccc(Cl)cc2)CC1", "hERG current change (%, negative = inhibition) at 10uM": -32.3},
      {"smiles": "COc1ccc(C(=O)C2CCCN(C(=O)c3ccnn3C)C2)c(C)c1", "note": "(stereo not shown)", "hERG current change (%, negative = inhibition) at 10uM": 2.47},
      {"smiles": "Cc1ccccc1Cn1c(NC2CCCC2)nc2c1c(=O)[nH]c(=O)n2C", "hERG current change (%, negative = inhibition) at 10uM": 10.9},
      {"smiles": "CN(C)C(=O)c1ccc(NC(=O)COC(=O)C2CCN(S(=O)(=O)c3ccc4c(c3)OCCO4)CC2)cc1", "hERG current change (%, negative = inhibition) at 10uM": 5.95},
      {"smiles": "COc1ccc(CCN(Cc2cccs2)S(=O)(=O)c2ccc(S(=O)(=O)N3CCCCCC3)cc2)cc1OC", "hERG current change (%, negative = inhibition) at 10uM": 1.8}
    ]}
  ]
}
